In article PMC10726135:
This is one part of the list. At the low end of the ranking the order means little. The protein was read in a cell extract, so binding may be indirect.

Target: T1, HNF4alpha8 (COS-7 nuclear extract) (UniProt P41235-5)
T1 sequence: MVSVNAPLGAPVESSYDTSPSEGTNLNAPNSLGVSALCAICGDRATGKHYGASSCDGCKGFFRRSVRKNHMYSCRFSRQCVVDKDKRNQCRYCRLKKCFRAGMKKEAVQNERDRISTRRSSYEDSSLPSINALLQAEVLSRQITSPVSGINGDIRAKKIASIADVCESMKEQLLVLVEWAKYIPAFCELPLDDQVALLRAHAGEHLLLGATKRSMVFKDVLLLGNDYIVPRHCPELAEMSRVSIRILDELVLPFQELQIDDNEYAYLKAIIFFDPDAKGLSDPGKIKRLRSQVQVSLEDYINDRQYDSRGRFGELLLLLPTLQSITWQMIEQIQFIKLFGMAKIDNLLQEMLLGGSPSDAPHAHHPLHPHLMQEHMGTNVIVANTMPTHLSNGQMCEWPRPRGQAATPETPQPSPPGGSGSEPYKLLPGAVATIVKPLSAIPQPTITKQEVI
Test: protein-binding microarray
Conditions: COS-7 nuclear extract on double-stranded Agilent 4x180k PBM; binding buffer, salt, pH and temperature not given; high values mean tight binding; double strand, one strand shown; sequences stand for … in …GCCTAGGGAGATTAGAGTATCGGTCGA

| Sequence | binding signal (log2 normalized intensity) |
| --- | --- |
| ATTACAACCAAAGGAATTTAGCCTTTAACC | 2.87 |
| CCTCACTTATCACATTCTGCTCTTGAACCA | 1.2 |
| ATGCAACACAGGGGGAGGAATGCTGACCTC | 3.53 |
| GCGCCTTGCGAGCGTACGCAGGGCGGCCGG | 1.25 |
| CGTGGTTCAGGGAGCGAATAAATACATAAA | -0.814 |
| GGGTGCTGCCTTTCCTGTGACTTTTGGCCA | 4.07 |
| TGACTCAGTCTTACTTGACAATTACATAGT | -0.141 |
| CTCCCACATGCTGTCTAGGCCAGAGTTCAC | 2.83 |
| CCCTGACTAAATTCTTGTCAATGACCCTAA | 4.19 |
| AAATCTGCACTTTACGTAAGATAAGGTGAA | 0.832 |
| CAGTTGACATGATACCTTCCTGAATGCCTA | -1.37 |
| CAGCATAGAAAACAAGTTAGACAGTGCCTA | -1.33 |
| AGGAGCCTCTGCAACCTTTGCTCTCCCTCC | 5.23 |
| TGAGAGATTAAACATGCTCTGCATACCTGC | -1.25 |
| TTCTTTTTTTTTTTTTTTTTTTTTTGAGAT | 3.08 |
| GCAGATGGTTTCATCTGGTTTCTGTTTGAG | 0.986 |
| CTTTAGCTCCTGGGCCCAGATATACAAGAA | -0.234 |
| ATCTTGATTACTATAGGGCAAATGGAAGAA | -0.196 |
| AAGAAAAGCCTTGTGGCAGTGAGAACAGGT | -1.3 |
| GTGTTGTGACTACCTGGTTAAAAGGACAAC | 0.22 |
| GTCTGACCAACCTGTCCAAAGGTCATCTGT | 7.75 |
| AAGATCTGTGAAAGAAAAGTACTTTAGTGT | 0.992 |
| TGGCGCCATTTCAGGTCCACCAAGGTGGTG | 0.73 |
| AGTGTTAAGGACAACCGGTAGCACAACATA | -1.24 |

| Sequence | binding signal (log2 normalized intensity) |
| --- | --- |
| ATCCTTCTTGACCAGGCAAGCTTGACCTTT | 7.77 |
| ATAGCCAAGCCAACCAGGAGAATTTCAGTA | 2.47 |
| AACACTATCTTCTTTCAGTGTTGACCTTTG | 7.46 |
| AGAGGGGCCAGGAACGTCACACTGAAAGCT | -1.39 |
| ATCCCCCACACCGAGATAGTAGAGATAGTG | 2.5 |
| GAGCGCAAATGATCAAAGGTCGGTTTTAGG | 5.48 |
| TCACTGACATTCCAGCCACTAAGAAGCCCA | -1.21 |
| TCACAAATGGAGTTTGGTTTAAAGTTCAAG | 2.84 |
| GTCAGTTGATAAACAGATAACTGGGGGCAA | 1.68 |
| TGAAGTCCAAAGGCCATCTGCTGGAGAATC | 3.81 |
| AGCCTGTGGTTTCTCTTTGTATACACATTA | 1.05 |
| AGTAGAGAGCAATCATGGGCCCACAGATGA | -1.1 |
| CTTTCTTCTTGATCAAGAGGAAGATCTTTT | 1.08 |
| CACCTTGGGGGCTGCTGGGGGCACAGTCCA | 3.57 |
| GGTGTTAAAATAACGACCTTTGGGCTAAAA | 4.52 |
| ACAGTTAGGTAAGAGACAAAGGTTGCATTC | 2.01 |
| TCCTTTTGCTTAAAACGCCTGCAGAAACTT | -1.21 |
| GGATGAGGCCGTTCTAGCCCTTTTTCCGGC | -1.19 |
| TCAAAGCCAGCAACGGTGAGTCAAGCACTT | -1.33 |
| GACAGCGGGTGTTTCTGGGAGTTGTGGTCC | 1.67 |
| GAACATAAGGATGCGGACTCCTCCCTCAGC | -1.22 |
| CTGCTGGGCGTGAACTGTGACTTTTATCTT | 1.17 |
| AGCCAGGTTAATTCACATCTCCAGTTCCAA | -0.845 |
| CACCCAGAGCGTCCCACCTGAGGCCAAGCA | -1.39 |

| Sequence | binding signal (log2 normalized intensity) |
| --- | --- |
| TTGCTGGTCCCTTTCAAAACCTTTGGTTTT | 1.28 |
| GGCCCTGTGCTGCCCCCGATAGCACTATTA | 3.71 |
| TAACTAACAAAAGCAGAGGAGTGGCCATGA | -1.32 |
| GCATGCACTGTTTGCCATAGATCCCACCAT | 0.809 |
| GACTCCAGCTAAAGCCTGCTCGTTGGGGGT | -1.37 |
| TCATTCAAAGTCCAAAAAGAATCAGTTACA | 1.48 |
| GCAGAGTTTTTTACTGCTCCTGCTGGCTAG | -1.31 |
| GCCAGATATGCCGAGAATGCAGCCTTATCT | -1.32 |
| GCCTGTCAGGCCCAGAAACACTGAACCTTG | 2.38 |
| ATCACACAGGCATATTTGGTTAGCTGTGCA | 0.44 |
| TTACCTGGGAAATTCCCTTTGCCTCATCTG | -1.12 |
| CACAGACCTGCCTCTCTCTCATGTCTGTAC | 0.832 |
| AGGTCAGGTGAATCAACGATAAGGGATGAT | -1.3 |
| TCCTTCTCACCGGGTGGAGCCTCACTGCAG | -0.4 |
| AGTCCAAGAGATTTCTACAGATAGCAAGAT | -1.3 |
| CATCATAAACCCGATCCTTACTATTAGGTC | 1 |
| GATAATCTCAAAAGGGAATTTTGGACAAGG | -0.992 |
| GACCTGGAGCCAGGGCCTTTTCAAGGGAGT | -1.3 |
| CTTCAAGTGTGACCCTGAACCTACAGCCCC | 3.08 |
| CAAGCCCAAAGCCCCCAGAGGTTCTAGCCC | 3.15 |
| ACCATCTCCAACATGACCACCTGGTTTAAG | 0.217 |
| GATAAGCCAAGAATGTACTCTCCCCACCTG | 2.95 |
| GGAAGGAGTCATTATCTTTATTATCCCAGT | 1.97 |
| GACCTTCAGATGCAGTCCAGAAGGTCAGGA | 4.19 |
